Among all 150,000 compounds or so, about 540 (0.36%) showed an effect of 50% or more. Some of the results follow.
test system: Plasmodium falciparum; assay: Primary screen in NF54 nanoGlo assay, in single point, at 2uM, 72h; a lower Z score goes with more inhibition; format: functional, Erythrocyte; conditions: timepoint 72 hour

Compound | % Inhibition [%] | Z score
CC(=O)c1c[nH]c(C(=O)Nc2ccc(N3CCN(C)CC3)c(Cl)c2)c1 | 19 | -2.19
Cc1ccc(CN2C(=O)COc3ccc(C(=O)N4CCN(c5ncccn5)CC4)cc32)cc1 | -21 | 2.77
O=C1NCCCn2cc(nn2)CC2(CCN(C(=O)CN3CCCCCC3=O)CC2)C(=O)N[C@H]1Cc1ccccc1 | -16 | 2.99
COc1ccc([C@H]2CC3(C)NC(=O)C2C(=O)N3)c(OC)c1 | -6 | 1.11
O=C(NCCn1cnc(-c2ccccc2)c1-c1ccncc1)c1cccnc1 | -10 | 1.6
O=S(=O)(c1ccc(F)cc1)N1CCC[C@H](CN2CCCC2)CC1 | -4 | 0.55
C[C@@H](CCc1ccccc1)NC(=O)C(=O)NC1CCCC1 | -4 | 0.65
CCc1nc2c(c(OC3CCN(C(=O)c4ccnn4CC)CC3)n1)CCOCC2 | -7 | 0.72
COc1ccc(CCNS(C)(=O)=O)c(Cl)c1 | -14 | 1.84
c1coc(-c2nc3c(c(N4CCOCC4)n2)CCN(CC2CC2)CC3)c1 | 3 | -0.43
Cc1nn(Cc2ccc(F)cc2)c(C)c1N1C(=O)CCC1=O | 5 | -0.78
C#Cc1cccc(NC(=O)CN[C@H](CO)C(C)C)c1 | -2 | 0.4
CC(C)=CCN1CCN(C(=O)c2ccc(Cl)cn2)[C@H]2CS(=O)(=O)C[C@H]21 | 6 | -0.93
Cc1sc2ncnc(N3CCCCC3)c2c1C(=O)NCc1cccc(Cl)c1 | 37 | -0.95
O=C(NCCc1ccco1)c1ccc(Cl)o1 | -18 | 3.47
CC(=O)NCCNC(=O)C1CCC(C)(C)CC1 | -14 | 2.19
CCCc1nnc2sc(C3(c4ccccc4)CC3)nn12 | 0 | 0.07
CC(C)(C)OC(=O)N[C@H]1CONC1=O | -2 | 0.33
Cc1ccc(CC(=O)N2CC[C@@]3(C2)C(=O)N(C)c2ccccc23)cc1 | -12 | 1.6
O=C(COc1ccc2nncn2n1)N(Cc1ccc2c(c1)OCO2)C1CC1 | -16 | 2.4
O=C(Cc1cccs1)N1CCC2(CCC(=O)N(CCc3cccnc3)C2)CC1 | 5 | -1.07
CCCn1c(=O)c2sccc2n(CC(=O)Nc2cc(C)on2)c1=O | 2 | -0.3
NC(=O)CO[C@H]1CCOC[C@H]1NC(=O)c1ncccc1O | -17 | 2.98
O=C(NCc1ccc2c(c1)OCO2)c1ccc2c(=O)n(-c3ccc(F)cc3)c(N3CCCC3)nc2c1 | 7 | -1.4
Cc1onc(-c2ccccc2Cl)c1C(=O)N1CC(COc2ccc(F)cc2)C1 | 6 | -0.9
COc1nc(C)cc(C)c1CN1CCN(C(=O)c2c(F)cccc2F)CC1 | -7 | 1.07
CCc1noc(CN(C[C@H]2CCOC2)C2CC2)n1 | -3 | 0.46
O=C(Cc1ccn[nH]1)NCC(F)(F)F | -3 | 0.48

Compound | % Inhibition [%] | Z score
Cc1noc(C)c1CN1C(=O)[C@@H]2CC[C@H]1CN(c1nc3ccccc3o1)C2 | -11 | 1.33
CC(CCOc1ccccc1)C(=O)NCC1CN2CCCC2CO1 (stereo not given) | -16 | 1.67
CN(C(=O)c1cc2c(s1)CCCCCC2)c1ccccc1 | -7 | 0.62
Cc1ccc(CN2CCCCCNC(=O)[C@@H]3CCC[C@@H]32)o1 | -19 | 2.53
Cc1ccc2c(c1)cc(CN[C@H]1CCS(=O)(=O)C1)c(=O)n2Cc1ccccc1Cl | -8 | 1.15
CN(CC1(CO)CCCC1)c1ccnc(C(=O)NCc2cccnc2)c1 | -8 | 1.04
Cc1noc(C)c1CCC(=O)N(C)C1CN(c2ccc3nnc(C)n3n2)C1 | -5 | 0.53
Cc1cc(C(N)=O)c(NC(=O)CC[C@H]2CCCO2)s1 | -8 | 1.28
OCC1CCN(c2cc(-c3ccccc3)nc3ncnn23)CC1 | -6 | 0.69
c1cc(-c2ccnc3[nH]ccc23)nc(N2CCNCC2)c1 | -6 | 1.23
O=C(c1ccc(O)cc1)C1CCN(C[C@H](O)C(F)(F)F)CC1 | 31 | -4.47
CN(C)CCN1CCN(C(=O)c2ccc3c(c2)N(C)CC3)CC1 | -13 | 1.14
O=C1N2CCCC[C@H]2CS(=O)(=O)N1CCN1CCc2ccccc21 | -5 | 0.64
CC(C)O[C@@H](C)c1n[nH]c(=O)n1CCc1ccccc1F | 4 | -0.69
Cc1onc(C(=O)N2CCC(c3nn(C)c(=O)n3C(C)C)CC2)c1COc1ccccc1 | -1 | 0.16
Cc1cc(CN(C)Cc2nnc3n2CCOCC3)ccc1C(F)(F)F | -5 | 0.72
Nc1c2c(-c3ccc(Cl)cc3)nc(NCCN3CCCC3)nc2nn1-c1ccc(Cl)cc1 | -13 | 1.2
O=c1nc(NCc2ccc3c(c2)OCO3)cn[nH]1 | -10 | 1.38
Cc1cc(N)n(CC(=O)NCc2cccnc2N2CCN(C)CC2)n1 | -5 | 0.54
Cc1noc(C)c1CN(Cc1ccccc1)C[C@H](O)c1ccco1 | 0 | -0.03
COCCNc1oc(-c2cccnc2)nc1C#N | -4 | 0.55
CC[C@H](NS(=O)(=O)NCC(F)(F)F)c1ccc(F)cc1F | -7 | 0.97
CC1(C(=O)NC2CCCC(F)C2)COC1 (stereo not given) | -13 | 1.21
Cc1nnc(CN2CCN(Cc3ccccc3)[C@H]3CS(=O)(=O)C[C@H]32)o1 | -12 | 1.98
Cn1cc(S(=O)(=O)N[C@@H]2C(=O)NCC2(C)C)cn1 | -9 | 0.92
COCc1cc(=O)n(Cc2cccc(OC)c2)c(N2CCCC2)n1 | -1 | 0.13
NC(=O)CN1CCC[C@H](NC(=O)c2ccc(-c3ccccc3)cc2)C1 | -13 | 1.96
